Test results as given in PubChem BioAssay AID624417 (National Center for Advancing Translational Sciences (NCATS), 2012).
The whole screen tested about 410,000 compounds, of which about 6,400 (1.6%) were called active. The shares of active, inactive and inconclusive entries below differ from those in the screen. Calls follow the shape of the dose curve; as a rule, active = well fitted inhibition curve with a large enough effect; inconclusive = small, poorly fitted or top-dose-only effect; inactive = no such curve, though single readings can be large or run the other way. No potency is given beside an inconclusive call; the fits are too rough.

Target: Glucagon-like peptide 1 receptor (Homo sapiens) (UniProt P43220)
Chain of UniProt P43220 (P43220 whole entry, looked up): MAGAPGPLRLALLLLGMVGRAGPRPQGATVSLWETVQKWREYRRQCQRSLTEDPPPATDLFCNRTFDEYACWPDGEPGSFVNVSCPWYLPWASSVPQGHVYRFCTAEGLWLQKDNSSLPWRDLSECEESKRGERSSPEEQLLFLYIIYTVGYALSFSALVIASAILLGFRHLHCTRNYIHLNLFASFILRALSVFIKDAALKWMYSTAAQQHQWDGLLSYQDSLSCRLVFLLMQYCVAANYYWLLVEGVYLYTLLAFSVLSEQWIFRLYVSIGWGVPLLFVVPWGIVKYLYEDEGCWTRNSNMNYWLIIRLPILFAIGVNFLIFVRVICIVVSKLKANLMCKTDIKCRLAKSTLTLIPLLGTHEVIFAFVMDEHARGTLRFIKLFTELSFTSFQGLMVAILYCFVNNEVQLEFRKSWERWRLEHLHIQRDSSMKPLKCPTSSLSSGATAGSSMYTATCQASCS
Test: qHTS of GLP-1 Receptor Inverse Agonists (Inhibition Mode); also: nearly all actives have a fitted effect of over 55% in size
Conditions: HEK293 GLP-1R CRE-luciferase, luminescence, 24 h, GLP-1R form is constitutively active; activity change, negative = inhibition: at 38.3 µM (top of the series) unless noted
In short: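 HEK293 cells stably co-expressing constitutively active GLP-1R and a cAMP-responsive luciferase reporter were seeded in DMEM with 10% Nu serum, given compounds after 12 h, and incubated 24 h at 37 deg C. Luminescence was then read.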
% is scaled to controls: 0 for no effect and ±100 for the full control effect; potency is read from the fitted curve at half-maximal effect; tags tell the direction and shape of the fitted curve.

Row | Compound | Potency | activity change, negative = inhibition
1 | CCOC(=O)c1cc(C#N)c(Oc2ccccc2)nc1-c1ccccc1 | inconclusive [inhibitor, single point] | 
2 | Cc1ccc(-n2c(SCc3ccccc3F)nc3[nH]ncc3c2=O)cc1C | inconclusive [inhibitor, partial curve, poor fit] | 
3 | O=C(Nc1ccccc1)c1cc(-c2ccccc2Cl)no1 | inconclusive [inhibitor, single point] | 
4 | O=C(OCC(=O)N1N=C(c2ccc(Cl)cc2)CC1c1ccco1)c1cccnc1 (stereo not drawn) |  | inactive: 39.5%
5 | COc1cccc(N2CCN(C(=S)NCCc3ccccc3)CC2)c1 | inconclusive [inhibitor, partial curve, poor fit] | 
6 | Nc1nc(N)c(S(=O)(=O)c2ccccc2)c(Nc2ccc(Br)cc2)n1 | inconclusive [inhibitor, partial curve, poor fit] | 
7 | Brc1cccc(OCCCNC2CCCC2)c1 | inconclusive [inhibitor, partial curve, poor fit] | 
8 | CCN(CC)C(=O)C1=C(C)N(Cc2ccc(F)cc2)C(=O)C(CC(=O)NCC2CCCCC2)C1 (stereo not drawn) | inconclusive [inhibitor, single point] | 
9 | CCc1c(O)nc(SCC(=O)Nc2nc3ccccc3s2)n(C2CCCCC2)c1=O | inconclusive [inhibitor, partial curve, poor fit] | 
10 | CCCCNC(=O)C1Cc2cc(S(=O)(=O)N3CCCCC3)ccc2N1C(C)=O (stereo not drawn) |  | inactive: -12.4%
11 | O=C(NCC(c1ccc(Cl)cc1)N1CCCCC1)c1ccc(F)cc1 (stereo not drawn) | inconclusive [inhibitor, single point] | 
12 | O=C(NC12CC3CC(CC(C3)C1)C2)c1ccc(-c2ccccc2Cl)o1 | inconclusive [inhibitor, full curve, poor fit] | 
13 | CSc1ccccc1NC(=O)c1ccccc1C | inconclusive [inhibitor, partial curve, poor fit] | 
14 | Cc1ccc(-n2c(SCc3nc(-c4ccccc4C)no3)nnc2-c2ccncc2)cc1C |  | inactive: 6.24%
15 | O=C(O)c1nn(CCOc2c(Cl)cccc2Cl)c(=O)c2ccccc12 | inconclusive [inhibitor, full curve, poor fit] | 
16 | CCCC1S/C(=N/N=C/c2ccc(OC)cc2)N(Cc2ccccc2)C1=O (stereo not drawn) | inconclusive [inhibitor, partial curve, poor fit] | 
17 | COC(=O)/C=C1\S/C(=N/N=C/c2ccco2)NC1=O |  | inactive: 6.34%
18 | COC(=O)[C@@]12CCCCN1[C@H](c1ccc(-c3ccc4c(c3)OCO4)c(OC)c1)[C@@H]1C(=O)N(C)C(=O)[C@@H]12 | inconclusive [inhibitor, partial curve, poor fit] | 
19 | COC(=O)c1c(NC(=O)c2ccc(S(=O)(=O)N3CCCCC3)cc2)sc2c1CCN(C)C2 |  | inactive: -0.928%
20 | Cc1nn(Cc2ccccc2Cl)c(Cl)c1C(=O)NCCc1ccccc1 | inconclusive [inhibitor, single point] | 
21 | COc1ccc(CCNC(=O)CCCn2c(=O)c3ccccc3n(CC(=O)Nc3c(C)cc(C)cc3C)c2=O)cc1OC |  | inactive: 6.02%

Row | Compound | Potency | activity change, negative = inhibition
22 | COc1ccc(NC(=O)c2cccc(S(=O)(=O)N3CCc4ccccc43)c2)cn1 | inconclusive [inhibitor, single point] | 
23 | O=C(Cc1ccccc1)Nc1c(C(=O)N2CCCCCC2)cnn1-c1ccccc1 | inconclusive [inhibitor, partial curve] | 
24 | O=C1CCCN1c1ccc(S(=O)(=O)NCCOc2ccccc2)cc1 | inconclusive [inhibitor, single point] | 
25 | CCOC(=O)c1ccc(NC(=O)Cn2nnc(-c3ccc(C(F)(F)F)cc3)n2)cc1 |  | inactive: -12.4%
26 | Cc1ccc(-c2csc(=Nc3ccccc3)n2CCCO)cc1 | inconclusive [inhibitor, single point] | 
27 | CC(=O)c1ccc(N2CCN(C(=O)c3ccco3)C(C)C2)c(F)c1 (stereo not drawn) | inconclusive [inhibitor, full curve, poor fit] | 
28 | CCOc1ccc(C(=O)CCC(=O)N2CCN(S(=O)(=O)c3cccc(F)c3)CC2)cc1 | inconclusive [inhibitor, partial curve, poor fit] | 
29 | Cc1ccc(C)n1-c1nccc(-c2cccs2)n1 | inconclusive [inhibitor, partial curve, poor fit] | 
30 | CNC(=O)c1ccc(NC(=O)c2nsc3ccccc23)cc1 | inconclusive [inhibitor, single point] | 
31 | CN(CC(=O)Nc1ccccc1Br)C(=O)COc1ccc2ccccc2c1 | inconclusive [inhibitor, partial curve, poor fit] | 
32 | COc1cc(/C=C2/C(=N)N3C=CSC3=NC2=O)ccc1OCCCOc1cc(C)ccc1C | inconclusive [inhibitor, partial curve, poor fit] | 
33 | O=S(=O)(c1ccc(F)c(Cl)c1)N1CCN(C/C=C/c2ccccc2)CC1 | inconclusive [inhibitor, partial curve, poor fit] | 
34 | Cc1ccc(NC(=O)N2CCCc3ccccc32)cc1C | inconclusive [inhibitor, single point] | 
35 | O=[N+]([O-])c1cccc(-c2nc(-c3cccs3)c(-c3cccs3)[nH]2)c1 | active: 2.51 µM | 
36 | COc1ccc2c(c1)c(N1CCCC1=O)c(C(=O)Nc1ccc(Cl)cc1C)n2C | inconclusive [inhibitor, partial curve, poor fit] | 
37 | Cc1cc(-c2ccc(NC(=O)[C@@H]3CCCC[C@@H]3C(=O)O)c(C)c2)ccc1NC(=O)[C@@H]1CCCC[C@@H]1C(=O)O | inconclusive [inhibitor, single point] | 
38 | CCC1CCCCN1C(=O)CSc1nnc2nc(C)cc(C)n12 (stereo not drawn) |  | inactive: 6.85%
39 | Cc1ccc(N2CC(c3nnc(Cc4ccc(F)cc4Cl)o3)CC2=O)cc1 (stereo not drawn) |  | inactive: -8.63%
40 | Cc1cc(F)ccc1C(O)c1ncc(-c2ccc3ccccc3c2)[nH]1 (stereo not drawn) | inconclusive [inhibitor, single point] | 
41 | CN(c1ccccc1)S(=O)(=O)c1cccc(NC(=O)CN2C(=O)NC3(CCCC3)C2=O)c1 | inconclusive [inhibitor, partial curve, poor fit] | 
42 | COc1cc2cc(CCCOC(=O)c3cccc(Br)c3)oc(=O)c2cc1OC |  | inactive: 14.6%

Row | Compound | Potency | activity change, negative = inhibition
43 | COC(=O)CNC(c1ccccc1)c1cc(Br)ccc1NC(=O)c1cc(OC)c(OC)c(OC)c1 (stereo not drawn) | inconclusive [inhibitor, single point] | 
44 | COc1ccc(Br)c(Cn2c(C)c(C(=O)NCc3ccc(F)cc3)sc2=O)c1 | inconclusive [inhibitor, single point] | 
45 | COc1ccc(NC(=O)C2Cc3c(-c4ccc(NC(C)=O)cc4)ccnc3O2)cc1OC (stereo not drawn) |  | inactive: 23.2%
46 | c1ccc(CSc2ccc(-c3ccccn3)nn2)cc1 |  | inactive: -24.6%
47 | COc1ccc(-c2[nH]c(-c3ccc(F)cc3)nc2SCC(=O)Nc2ccc(OC)c(OC)c2)cc1 | inconclusive [inhibitor, single point] | 
48 | Cc1ccc(NC(=O)N(Cc2ccc3c(c2)OCO3)Cc2cc3cc4c(cc3[nH]c2=O)OCCO4)cc1 |  | inactive: -17.2%
49 | CCc1ccc(CN2C(=O)c3ccccc3C2C(=O)NC(C)CC)cc1 (stereo not drawn) | inconclusive [inhibitor, partial curve, poor fit] | 
50 | COc1ccccc1CN1C2CCCC1CC(NC(=O)/C=C/c1ccccc1)C2 (stereo not drawn) | active: 10 µM | 
51 | COc1cc(NC(=O)COC(=O)CCOc2ccc(C)cc2)cc(OC)c1 |  | inactive: 2.12%
52 | COc1cccc(C(=O)C2CCCN(C/C=C/c3ccccc3OC)C2)c1 (stereo not drawn) | inconclusive [inhibitor, partial curve] | 
53 | Cc1ccc(NC(=O)N2CCCN(C(=O)OC(C)(C)C)CC2)cc1Cl | inconclusive [inhibitor, single point] | 
54 | CC(C)=CCc1c(O)ccc(C(=O)Cc2ccccc2)c1O | inconclusive [inhibitor, partial curve, poor fit] | 
55 | COC(=O)CCNC(=O)Cc1c(C)n(C(=O)c2ccc(Cl)cc2)c2ccc(OC)cc12 | inconclusive [inhibitor, partial curve, poor fit] | 
56 | COc1ccc(CCNC(=O)Cn2c(C)c3cnn(-c4ccccc4)c(=O)c3c2C)cc1OC |  | inactive: 7.35%
57 | COc1ccc(-c2cc(C)no2)cc1S(=O)(=O)Nc1cccc(C(F)(F)F)c1 | inconclusive [inhibitor, single point] | 
58 | CC(CCc1ccccc1)NC(=O)c1nnc(Cc2ccc(Cl)cc2)o1 (stereo not drawn) | inconclusive [inhibitor, single point] | 
59 | CCC(C)c1ccc(OCC(=O)Nc2cccc(C(=O)Nc3ccc(C(=O)O)cc3)c2)cc1 (stereo not drawn) | inconclusive [inhibitor, single point] | 
60 | COc1cccc(OCc2cc(C(=O)N(C)C3CC(C)(C)NC(C)(C)C3)no2)c1 | inconclusive [inhibitor, single point] | 
61 | CCN(CC)C(=S)SCC(=O)Nc1cccc(C(F)(F)F)c1 | inconclusive [inhibitor, single point] | 
62 | CCn1cc2nc(SCc3cccc(C(F)(F)F)c3)n(CCc3ccccc3)c(=O)c2n1 | inconclusive [inhibitor, partial curve] | 
63 | CCSc1oc(-c2cccs2)nc1S(=O)(=O)c1ccccc1 | inconclusive [inhibitor, single point] | 
